Reference: patent publication WO2020165374A1 (dated 2020)

What was measured:
[1] = molecular target: T1, human recombinant IL-15 (SinoBiological ref#10360-H07E) (human, UniProt P40933 partial chain); assay: ELISA, human IL-15 immobilized, anti-human IgG peroxidase detection
T1 construct: also called Human IL-15; IL-15 cytokine

[2] = molecular target: T2, recombinant human PD-1 (Sino Biologicals, reference 10377-H08H) (human, UniProt Q15116 partial chain); assay: ELISA, recombinant hPD1 immobilized, anti-human IgG peroxidase detection
T2 construct: Bought protein; also called recombinant hPDl; Human recombinant PD-1
T2 sequence (Q15116 25-167 limits assumed): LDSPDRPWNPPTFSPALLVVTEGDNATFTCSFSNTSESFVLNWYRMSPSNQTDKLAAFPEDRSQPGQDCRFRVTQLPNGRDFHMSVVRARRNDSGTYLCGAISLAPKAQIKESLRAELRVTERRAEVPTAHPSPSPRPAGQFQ

T1 sequence (P40933 49-162 limits assumed, stated change not applied): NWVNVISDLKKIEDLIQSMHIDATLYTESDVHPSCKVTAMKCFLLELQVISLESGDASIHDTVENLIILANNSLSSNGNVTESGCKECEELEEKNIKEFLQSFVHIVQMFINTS

B1: bifunctional molecule anti-PD-1/sushi (other)
heavy: QIQLVQSGSELKKPGASVKVSCKASGYTFTHYAMNWVRQAPGQGLEWMGWINTNTGEPTYAQGFTGRFVFSLDTSVSTAYLQISSLKAEDTAVYYCAREREPGMDNWGQGTLVTVSSASTKGPSVFPLAPCSRSTSESTAALGCLVKDYFPEPVTVSWNSGALTSGVHTFPAVLQSSGLYSLSSVVTVPSSSLGTKTYTCNVDHKPSNTKVDKRV[in this place human IgG4 Fc with S228P L445P (EU numbers)]ITCPPPMSVEHADIWVKSYSLYSRERYICNSGFKRKAGTSSLTECVLNKATNVAHWTTPSLKCIRDPALVHQRPAPPS
light: DVVMTQSPLSLPVTLGQPASISCRSSQSLVHANTNTYLEWYQQRPGQSPRLLIYKVSNRFSGVPDRFSGSGSGTDFTLKISRVEAEDVGVYYCFQGTHVPNTFGQGTKLEIKRTVAAPSVFIFPPSDEQLKSGTASVVCLLNNFYPREAKVQWKVDNALQSGNSQESVTEQDSKDSTYSLSSTLTLSKADYEKHKVYACEVTHQGLSSPVTKSFNRGEC
notes: also called anti-PD-l/sushi; anti-PDl/sushi
fold binding efficacy compared to the IL-15RA Fc protein [1]: 10 fold
binding result [2]: binds

B2: bifunctional molecule anti-PD-1/IL15Ra (other)
heavy: QIQLVQSGSELKKPGASVKVSCKASGYTFTHYAMNWVRQAPGQGLEWMGWINTNTGEPTYAQGFTGRFVFSLDTSVSTAYLQISSLKAEDTAVYYCAREREPGMDNWGQGTLVTVSSASTKGPSVFPLAPCSRSTSESTAALGCLVKDYFPEPVTVSWNSGALTSGVHTFPAVLQSSGLYSLSSVVTVPSSSLGTKTYTCNVDHKPSNTKVDKRV[in this place human IgG4 Fc with S228P L445P (EU numbers)]ITCPPPMSVEHADIWVKSYSLYSRERYICNSGFKRKAGTSSLTECVLNKATNVAHWTTPSLKCIKPAASSPSSNNTAATTAAIVPGSQLMPSKSPSTGTTEISSHESSHGTPSQTTAKNWELTASASHQPPGVYPQGHSDTT
light: B1 light
notes: also called anti-PD-l/IL-15RA; anti-PDl/IL15-RA
fold binding efficacy compared to the IL-15RA Fc protein [1]: 10 fold
binding result [2]: binds
